# Measured values as given in PubChem BioAssay AID995 (National Center for Advancing Translational Sciences (NCATS), 2007).
# Out of some 72,000 compounds screened, about 710 (0.99%) were called active. Inconclusive means that the source gave no clear call. Such entries were picked first, then a sample of the others. The call rests on the fitted dose curve; in most records, active means well fitted inhibition curve with a large enough effect; inconclusive means small, poorly fitted or top-dose-only effect; inactive means no such curve, though single readings can be large or run the other way. No potency is given beside an inconclusive call; the fits are too rough.
# Experiment: qHTS Assay for Inhibitors of the ERK Signaling Pathway using a Homogeneous Screening Assay; further: nearly all actives have a fitted effect of over 55% in size
# Conditions: HEK293-V1b, vasopressin-stimulated pERK AlphaScreen; activity, negative = inhibition: at 57.5 µM (top of the series) unless noted
# From the text: qHTS Assay for Inhibitors of the ERK Signaling Pathway using a Homogeneous Screening Assay; further: nearly all actives have a fitted effect of over 55% in size
# NIH Chemical Genomics Center [NCGC]
# NIH Molecular Libraries Screening Centers Network [MLSCN]
# Assay Submitter (PI): Dr. Wei Zheng, NCGC/NIH
# The Ras/extracellular-signal-regulated kinase (ERK) mitogen activated protein (MAP) kinase signaling pathway (ERK1/2 cascade) plays is a key role in transmitting signals from the cell surface to the nucleus (Nishida and Gotoh 1993; Chang and Karin, 2001). The cascade is initiated by the small G-protein Ras, which recruits Raf […], where activation occurs. Alternatively, this pathway can be activated by elevating intracellular cAMP.
# Activation of the ERK pathway is essential in increased cell division and cell survival. Sustained and constitutive activation of the ERK pathway, however, has been linked to uncontrolled cell proliferation, increased cell survival, and tumor progression. Thus, the ERK has been as an attractive target for cancer chemotherapy in the past few years (Sebolt-Leopold and Herrera, 2004). Given its physiological and pathological importance, assessment of ERK phosphorylation has been broadly performed in both basic research and drug discovery. Most assays for the measurement of ERK phosphorylation use the antibody-based detection methods, such as western blot and ELISA. These assays require multiple reagent additions with cell wash steps and are not suitable for high throughout screening.
# The current cell-based ERK phosphorylation assay was performed using AlphaScreen platform. AlphaScreen is a two bead-based proximity-dependent chemical energy transfer luminescent assay platform. The assay reagents (ERK SureFire(TM) kit) were supplied from TGR BioSciences (Australia). In the presence of specific antibodies, phosphorylated ERK will bring "donor" and "acceptor" beads to a proximity range (<200 nm), and subsequently lead a chemical luminescent reaction upon exciting donor beads with 680 nm laser. To exclude the assay-related false positives, we used a biotinylated rabbit IgG to perform counter-screen. The biotinylated antibody mimics the phosphorylated ERK1/2 for bringing streptavidin coated beads and protein-A coated beads to a proximity range for the AlphaScreen detection.
# NCGC Assay Protocol Summary:
# HEK293 cells stably expressing type-1 vasopressin receptor (V1b) were maintained in DMEM medium (Invitrogen, Carlsbad, CA) at 37C under a humidified atmosphere containing 5% CO2 and 95% air. The medium contained 10% FBS, 2 mM L-glutamine, non-essential amino acid, pyruvate and 50 U/ml penicillin and 50 ug/ml streptomycin (Invitrogen). The aliquots of frozen cells were stored at -135C and used for the compound screening. All compounds were screened as titrations from 0.6 nM to 46 uM final concentration. Vasopressin was used to stimulate the ERK phosphorylation pathway. The ERK phosphorylation in cells was determined using an AlphaScreen assay kit provided by PerkinElmer. Data were normalized to the controls for basal activity (DMSO only) and 100% activation (25 nM vasopressin). AC50 values were determined from concentration-response data modeled with the standard Hill equation.
# (1) Seed 4 ul/well of resuspended frozen HEK293 cells containing 2000 cells in white 1536-well plates for overnight with 1% FBS at 37C under a humidified atmosphere containing 5% CO2 and 95% air.
# (2) Add 23 nL compounds in DMSO solution. The final titration was 0.6 nM to 46 uM.
# (3) Incubate at 37C for 30 min.
# (4) Dispense 0.5uL vasopressin (25 nM in final)
# (5) Incubate at 37C for 5 min.
# (6) Dispense 0.5uL of 1:2 diluted 5x lysis buffer.
# (7) Incubate at 37C for 10 min.
# (8) Dispense 1.5uL of mixture of activation buffer and reaction buffer with AlphaScreen beads (streptavidin donor beads and protein-A acceptor beads, 10 ng/well for each).
# (9) Incubate at room temperature for 5 hr.
# (10) Detect the assay plate in an EnVision plate reader (PerkinElmer) using the AlphaScreen detection mode.
# […]
# On the % scale 0 is the no-effect control and ±100 the full control effect; potency means the concentration at half of the fitted maximal effect; tags describe the fitted curve by direction and shape.
Structure (SMILES),Potency,"activity, negative = inhibition"
Nc1nc(N)c2nc(CNc3ccc(C(=O)NC(CCC(=O)O)C(=O)O)cc3)cnc2n1 (centres undefined),"inconclusive [inhibitor, single point]",–
CC(C)n1cc2c3c(cccc31)[C@@H]1C[C@H](C(=O)O[C@@H](C)[C@H](C)O)CN(C)[C@H]1C2,"inconclusive [inhibitor, partial curve]",–
O=C(O)/C=C\c1ccc[c]([Sb](=[O])([OH])[OH])c1,–,inactive: 6.22% [at 11.5 µM]
CCOC(=O)c1cccc(NC2c3ccccc3C(=O)N2Cc2ccco2)c1 (centres undefined),"inconclusive [inhibitor, single point]",–
N#Cc1c(/N=C/c2c(O)n(Cc3ccco3)c(=O)[nH]c2=O)sc2c1CCCC2,"inconclusive [inhibitor, single point]",–
Oc1ccc(Cl)cc1Cc1ccccc1,–,inactive: 34%
Cc1ccc2c(c1)C(c1ccccc1)NCC(=O)N2 (centres undefined),–,inactive: 1.97% [at 11.5 µM]
CCCCCCCCCc1ccc(OCCOCCOCCOCCOCCOCCOCCOCCOCCO)cc1,"inconclusive [inhibitor, single point]",–
CN1[C@@H]2CC[C@H]1CC(O[C@@H](c1ccccc1)c1ccc(Cl)cc1)C2 (some centres undefined),inactive,–
Nc1c(C(=O)NCCN2CCOCC2)c2nc3ccccc3nc2n1Cc1ccco1,active: 15.8 µM,–
COc1ccc(P2(=O)Nc3ccccc3N2)cc1,"inconclusive [inhibitor, partial curve]",–
CN1C(=O)N(C)C(=O)C2(Sc3ccccc3C2=O)C1=O,"inconclusive [inhibitor, partial curve, poor fit]",–
c1ccc2nc(N3CCNCC3)ccc2c1,"inconclusive [inhibitor, single point]",–
O=c1[nH]c(SCc2n[nH]c(=S)n2-c2ccccc2)nc2ccccc12,"inconclusive [inhibitor, partial curve, poor fit]",–
O=[N+]([O-])c1ccc2c3c(cccc13)CC2,–,inactive: -11%
Cc1ccc(S(=O)(=O)N(C)CCCC(=O)N2CCN(c3ccccn3)CC2)cc1,active: 25.1 µM,–
COc1cccc(N2CCN(Cc3ccc(Cl)cc3)CC2)c1,–,inactive: -12.5%
CC(=O)N1CCN(c2ccc(OC[C@H]3CO[C@](Cn4ccnc4)(c4ccc(Cl)cc4Cl)O3)cc2)CC1,"inconclusive [inhibitor, partial curve]",–
CC(=O)[C@H]1CC[C@H]2[C@@H]3CCC4=CC(=O)CC[C@]4(C)[C@H]3CC[C@]12C,"inconclusive [inhibitor, single point]",–
NCCc1cc(O)c(O)cc1O,"inconclusive [inhibitor, single point]",–
O=[N+]([O-])CCO,–,inactive: -17.3%
CC(C)C1C(=O)N2CCCC2[C@]2(O)O[C@@](NC(=O)[C@@H]3C=C4c5cccc6[nH]cc(c56)C[C@H]4N(C)C3)(C(C)C)C(=O)N12 (some centres undefined),–,inactive: -11.1%

Structure (SMILES),Potency,"activity, negative = inhibition"
Clc1cccc(N2CCNCC2)c1,inactive,–
Clc1ccc(CSC(Cn2ccnc2)c2ccc(Cl)cc2Cl)cc1 (centres undefined),"inconclusive [inhibitor, partial curve, poor fit]",–
O=C(O)[C@H]1C2c3ccccc3C(c3ccccc32)[C@@H]1C(=O)NCC1CC1,–,inactive: -8.39% [at 11.5 µM]
Nc1ccc(Sc2ccc(N)cc2)cc1,"inconclusive [inhibitor, single point]",–
C[N+](C)(C)CC#CCN1CCCC1=O,"inconclusive [inhibitor, partial curve]",–
Cn1c(O)c(C=NCCOc2ccc(Cl)cc2)c(=O)n(C)c1=O,–,inactive: 8.62%
CC(C)[C@@]1(NC(=O)[C@@H]2C[C@H]3c4cccc5[nH]cc(c45)C[C@@H]3N(C)C2)O[C@@]2(O)[C@H]3CCCN3C(=O)[C@H](Cc3ccccc3)N2C1=O,"inconclusive [inhibitor, partial curve]",–
C[C@@H]1Cc2cc3c(cc2C(c2ccc(N)cc2)=NN1)OCO3,"inconclusive [inhibitor, partial curve]",–
CC1=C(C(=O)Nc2ccccc2)SCCO1,"inconclusive [inhibitor, full curve, poor fit]",–
Cc1ncc(CC(=O)n2cc(C(=O)c3cc(Cl)ccc3O)cn2)s1,"inconclusive [inhibitor, partial curve]",–
O=C(c1ccc2nc(-c3ccco3)c(-c3ccco3)nc2c1)N1CCC2(CC1)OCCO2,"inconclusive [inhibitor, single point]",–
CC(=O)N1CCN(c2ccc(OCC3CO[C@@](Cn4ccnc4)(c4ccc(Cl)cc4Cl)O3)cc2)CC1 (some centres undefined),"inconclusive [inhibitor, single point]",–
Cc1cc(Cl)ccc1OCC(=O)N1CCN(C)CC1,–,inactive: -14%
C[C@@H]1OC(OC2C(OC3CC[C@@]4(C)C5CC=C6C7CC(C)(C)CC[C@@]7(C(=O)O)CCC6(C)C5(C)CCC4[C@]3(C)CO)OCC(O)C2O)C(O)C(O)C1O (some centres undefined),"inconclusive [inhibitor, single point]",–
CC(=NCc1ccco1)c1c(O)n(C)c(=O)n(C)c1=O,–,inactive: -8.24%
Cc1[nH]c2ccc(O)cc2c1CCN,"inconclusive [inhibitor, partial curve, poor fit]",–
O=C(Nc1nc2ccccc2n1CCN1CCCC1)c1ccc(Cl)cc1,"inconclusive [inhibitor, single point]",–
C#CCO,–,inactive: 15.7%
COc1cc2c(cc1OC)-c1c(OC)c(OC)c(CO)c3c1C(C2)N(C)CC3 (centres undefined),"inconclusive [inhibitor, partial curve, poor fit]",–
Cl.Cl.Cl.Cl.Cl.Cl.N.N.N.N.NNNNN.NNNNN.O.O.[Ru].[Ru].[Ru],"inconclusive [inhibitor, partial curve, poor fit]",–
N#CC1=C(N)Oc2n[nH]c(-c3cccs3)c2C1c1ccsc1 (centres undefined),"inconclusive [inhibitor, single point]",–
Clc1ccc(C(c2ccc(Cl)cc2)n2cc[n+](C[C@@H](OCc3ccc(Cl)cc3Cl)c3ccc(Cl)cc3Cl)c2)cc1,"inconclusive [inhibitor, partial curve]",–
